This note sets out measurements from publication PMC6794377.

Assay [1] has as its target T1, native p43 (AIMP1), endogenous in human cells (human (endogenous in HEK293T and HeLa)) (UniProt Q12904).
T1 sequence: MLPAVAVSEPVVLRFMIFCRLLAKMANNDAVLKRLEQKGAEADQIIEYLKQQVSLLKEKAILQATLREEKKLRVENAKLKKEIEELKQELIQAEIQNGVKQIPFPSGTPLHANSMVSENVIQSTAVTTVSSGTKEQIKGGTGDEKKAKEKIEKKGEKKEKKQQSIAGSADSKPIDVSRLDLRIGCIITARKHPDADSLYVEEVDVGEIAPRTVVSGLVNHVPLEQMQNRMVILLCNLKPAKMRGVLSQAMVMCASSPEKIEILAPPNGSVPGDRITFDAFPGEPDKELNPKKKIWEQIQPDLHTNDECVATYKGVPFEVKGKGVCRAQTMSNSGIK
As to the kind of experiment: co-IP; transfected HEK293T lysate, IP with anti-p43 antibodies; western blotting.

For assay [2], the target named is T2, hThrRS-L-S459D with a C-terminal FLAG tag (human) (UniProt A2RTX5).
T2 sequence: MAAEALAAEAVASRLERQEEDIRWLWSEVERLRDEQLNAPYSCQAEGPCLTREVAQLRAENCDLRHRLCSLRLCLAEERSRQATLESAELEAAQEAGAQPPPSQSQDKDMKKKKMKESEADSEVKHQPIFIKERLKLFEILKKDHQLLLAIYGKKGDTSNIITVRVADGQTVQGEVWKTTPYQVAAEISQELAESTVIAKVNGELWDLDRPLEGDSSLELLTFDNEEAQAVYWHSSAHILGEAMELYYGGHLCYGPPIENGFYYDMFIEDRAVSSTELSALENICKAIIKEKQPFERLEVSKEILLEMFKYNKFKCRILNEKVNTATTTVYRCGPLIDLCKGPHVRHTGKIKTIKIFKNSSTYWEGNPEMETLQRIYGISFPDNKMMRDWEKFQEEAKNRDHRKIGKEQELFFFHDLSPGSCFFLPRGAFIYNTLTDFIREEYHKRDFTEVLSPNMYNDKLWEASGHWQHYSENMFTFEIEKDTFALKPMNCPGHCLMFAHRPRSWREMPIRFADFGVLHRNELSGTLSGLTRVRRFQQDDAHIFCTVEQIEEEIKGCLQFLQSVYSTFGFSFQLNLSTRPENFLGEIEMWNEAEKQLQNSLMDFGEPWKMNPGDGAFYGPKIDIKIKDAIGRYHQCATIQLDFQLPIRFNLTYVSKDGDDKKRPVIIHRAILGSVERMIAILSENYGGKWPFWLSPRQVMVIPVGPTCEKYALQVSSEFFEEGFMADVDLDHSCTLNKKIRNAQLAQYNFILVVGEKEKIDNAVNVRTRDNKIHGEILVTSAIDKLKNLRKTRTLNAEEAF
As to the kind of experiment: co-IP; FLAG-tagged hThrRS-L or mutant overexpressed in HEK293T; IP with anti-FLAG, Dynabeads protein G, 4°C; endogenous partners detected by western blotting. In general terms: In western blotting, separated proteins are transferred to a membrane and probed.

Assay [3] deals with T3, hThrRS-L-Y457D with a C-terminal FLAG tag (human) (UniProt A2RTX5).
T3 sequence: T2 sequence with Y457D, D459S
As to the kind of experiment: co-IP; FLAG-tagged hThrRS-L or mutant expressed in HeLa cells; IP with anti-FLAG; endogenous partners detected by western blotting.

In assay [4] the target is T4, hThrRS-L-Y619D with a C-terminal FLAG tag (human) (UniProt A2RTX5).
T4 sequence: T2 sequence with D459S, Y619D
Described as above.

Positions count from the first letter of the chain named. Results are given in words; binding and its absence hold for the method and conditions named. In cells and extracts the contact can be indirect. Some results given as binding are weak or reduced against the parent protein; the word gives no strength. For part of these data: Where a sequence is shown, tags or fusion partners need not be part of it.

B1: native hThrRS, endogenous in HEK293T (enzyme, UniProt P26639 1-723)
chain: MFEEKASSPSGKMGGEEKPIGAGEEKQKEGGKKKNKEGSGDGGRAELNPWPEYIYTRLEMYNILKAEHDSILAEKAEKDSKPIKVTLPDGKQVDAESWKTTPYQIACGISQGLADNTVIAKVNNVVWDLDRPLEEDCTLELLKFEDEEAQAVYWHSSAHIMGEAMERVYGGCLCYGPPIENGFYYDMYLEEGGVSSNDFSSLEALCKKIIKEKQAFERLEVKKETLLAMFKYNKFKCRILNEKVNTPTTTVYRCGPLIDLCRGPHVRHTGKIKALKIHKNSSTYWEGKADMETLQRIYGISFPDPKMLKEWEKFQEEAKNRDHRKIGRDQELYFFHELSPGSCFFLPKGAYIYNALIEFIRSEYRKRGFQEVVTPNIFNSRLWMTSGHWQHYSENMFSFEVEKELFALKPMNCPGHCLMFDHRPRSWRELPLRLADFGVLHRNELSGALTGLTRVRRFQQDDAHIFCAMEQIEDEIKGCLDFLRTVYSVFGFSFKLNLSTRPEKFLGDIEVWDQAEKQLENSLNEFGEKWELNSGDGAFYGPKIDIQIKDAIGRYHQCATIQLDFQLPIRFNLTYVSHDGDDKKRPVIVHRAILGSVERMIAILTENYGGKWPFWLSPRQVMVVPVGPTCDEYAQKVRQQFHDAKFMADIDLDPGCTLNKKIRNAQLAQYNFILVVGEKEKISGTVNIRTRDNKVHGERTISETIERLQQLKEFRSKQAEEEF
With B1, the binding result in assay [1] is reported as “no binding”; in assay [2] it was “binds”.

B2: ArgRS, endogenous in human cells (enzyme, UniProt P54136 1-660)
chain: MDVLVSECSARLLQQEEEIKSLTAEIDRLKNCGCLGASPNLEQLQEENLKLKYRLNILRKSLQAERNKPTKNMINIISRLQEVFGHAIKAAYPDLENPPLLVTPSQQAKFGDYQCNSAMGISQMLKTKEQKVNPREIAENITKHLPDNECIEKVEIAGPGFINVHLRKDFVSEQLTSLLVNGVQLPALGENKKVIVDFSSPNIAKEMHVGHLRSTIIGESISRLFEFAGYDVLRLNHVGDWGTQFGMLIAHLQDKFPDYLTVSPPIGDLQVFYKESKKRFDTEEEFKKRAYQCVVLLQGKNPDITKAWKLICDVSRQELNKIYDALDVSLIERGESFYQDRMNDIVKEFEDRGFVQVDDGRKIVFVPGCSIPLTIVKSDGGYTYDTSDLAAIKQRLFEEKADMIIYVVDNGQSVHFQTIFAAAQMIGWYDPKVTRVFHAGFGVVLGEDKKKFKTRSGETVRLMDLLGEGLKRSMDKLKEKERDKVLTAEELNAAQTSVAYGCIKYADLSHNRLNDYIFSFDKMLDDRGNTAAYLLYAFTRIRSIARLANIDEEMLQKAARETKILLDHEKEWKLGRCILRFPEILQKILDDLFLHTLCDYIYELATAFTEFYDSCYCVEKDRQTGKILKVNMWRMLLCEAVAAVMAKGFDILGIKPVQRM
Turning to B2, the binding entry in assay [1], in assay [3], in assay [4] and in assay [2] was “binds” in each case.

B3: native p43 (AIMP1), endogenous in human cells (protein, UniProt Q12904-2 1-336)
chain: T1 sequence
As for B3, the binding entry in assay [3], in assay [4] and in assay [2] was “binds” throughout.
